Experimental findings from the supplement of paper PMC11417369 are described below.

± gives the standard deviation of the averaged measurements. Some of the results follow.

In this assay the test system is PfAP2-EXP AP2 domain (GST-tagged). Description: gcPBM binding intensity (ln(normalized median fluorescence intensity)); higher = stronger DNA binding. The gist of the method:
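Probes on an Agilent 4 × 180k array were primer-extended, double-stranded and 36 bp long, taken from intergenic genomic regions, with negative controls added. GST-tagged P. falciparum DNA-binding domains from E. coli, about 25 μg on average, were applied to the array for 1 h in 1× PBS containing 1% milk, 0.2 mg/ml BSA, 0.5% salmon testes DNA and 0.03% Triton X-100. Binding intensity, obtained after Alexa488 anti-GST antibody detection and a 488 nm scan, is the highest Masliner-normalised natural-log median intensity across replicate spots of either probe orientation.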
Take “CGTATTATTTTATAAACACACAAGGGGGCATGTATA [CACACA_site6489]”: the “gcPBM binding intensity (ln)” value was 10.1 ± 0.44. Next, “CTTTAGTTTTTAATGTGTACTGAATTTGAATAGTAG [XGTACX_site7920]”: 8.59 ± 0.071; “TTGATATGTACAGGCACACATAAATTTCACAAATAT [CACACA_site3999]”: 8.47 ± 0.33; “CATAAATGTATATAAACATGCAAGGACAGACTTTTA [TGCATGCA_site900]”: 8.76 ± 0.42.

“ATATAATTAAAAACATGTACATATATATATATATAT [XGTACX_site2882]”: the “gcPBM binding intensity (ln)” value was found to be 10.2 ± 0.55. Next, GTAAAAATACAAAAGGTGCTCAAACAATATAATACA: 8.87 ± 0.36; “AAAATTAAATTATAAGCACACACATATATATATATA [CACACA_site9105]”: 10.2 ± 0.52. Next, “TACATACAGATATATACACACATATATAATATATAT [CACACA_site4376]”: 8.52 ± 0.44. Next, “TACATACCTATATACACATGCATATTTACATATATT [TGCATGCA_site206]”: 9.09 ± 0.42. Turning to “TATATAATATATATGACACACATATTTATATAAATA [CACACA_site4054]”, the “gcPBM binding intensity (ln)” value was determined as 8.29 ± 0.4. Next, “AATGGATTGATAAGTGGTACACACATATATATTATA [XGTACX_site6086]”: 8.66 ± 0.38; “GAATATTAAACAAACACACACACATATATTTATATA [CACACA_site7563]”: 8.63 ± 0.42; “AAAAGATATATTATATGTACTAATTATATGATAAAT [XGTACX_site4192]”: 8.43 ± 0.28. Next, “AAAGAGAAATTTAAATGTACATTTGTTCTAAGTGTA [XGTACX_site3602]”: 8.49 ± 0.35; “AATTATGAAAAATCAAGTACAAACAAAATCATAATT [XGTACX_site5665]”: 8.94 ± 0.63; “CATACACCCATACATACACACATACATATATATATA [CACACA_site8591]”: 9.895 ± 0.064. Next, “ATATAATGTTTCACATGTACAAACAACACAAAAAAA [XGTACX_site1899]”: 8.73 ± 0.47; “TATTATATTCTGCTTACACACATATATATATATATA [CACACA_site3060]”: 10.3 ± 0.38. Take “TTAAAAAAAGAAAAAAAAAAAAAAAAAAAAAAACAT [CACACA_negctrl_site475]”: the “gcPBM binding intensity (ln)” value turned out to be 8.29 ± 0.5.

For the sequence “TATAAAAATATTTCTACACACATTAATATTTATATA [CACACA_site6661]”, the “gcPBM binding intensity (ln)” value came to 8.31 ± 0.36. Regarding “GTGATAATTGCTTGGTGTACCCACATATATATATAT [XGTACX_site1636]”, the “gcPBM binding intensity (ln)” value was 9.98 ± 0.29. Next, “GTTCTAAATATTATTGCATGTTGCACGTTTCTCTGT [TGCATGCA_site159]”: 9.09 ± 0.3; “TATTATATTTATATTTGTACTTAAAATATTATACAC [XGTACX_site2881]”: 8.41 ± 0.35. Next, “AGTATACGCAAACACACACACACAAAAAAAAAAAAA [CACACA_site426]”: 8.27 ± 0.54. Turning to “AAATAAGAAAATCATAGTACATAGGAATAGAAGAAC [XGTACX_site3135]”, the “gcPBM binding intensity (ln)” value was 9.38 ± 0.34. Next, “AGAAAAATTATATATACACACTTATATTTATATATA [CACACA_site5555]”: 8.17 ± 0.33. Next, “TACGTTCTGATATATACACACCTGGTATTAATTATG [CACACA_site7113]”: 8.93 ± 0.46; “TTTTTTTTTTTAAATTGTACTTATTTTATATTATAT [XGTACX_site1077]”: 8.41 ± 0.32. Next, “TATTAAATATTGTAATGTACATATATAATATAATAT [XGTACX_site1809]”: 8.53 ± 0.17; “ATATCTTATTTTCCTTGTACTTATTTCATAATTACA [XGTACX_site3894]”: 9.01 ± 0.4.

“AATGTCATGATACATACACACACATACACATACACA [CACACA_site8665]”: the “gcPBM binding intensity (ln)” value came to 8.54 ± 0.56. Next, “TAAATATGTATAAATTGTACAAAATATATGAATAGT [XGTACX_site5659]”: 8.94 ± 0.29; “CAATAAACCATTTTTTGTACATAAAAATAGGTATTG [XGTACX_site1892]”: 8.51 ± 0.41.

On to “AATTTCCCATATTACACACATACTATGATATATAAA [CACACA_site3834]”, for which the “gcPBM binding intensity (ln)” value was 8.68 ± 0.39. On to “CACATATAGTTATATGCACACATCTTACACATCTAT [CACACA_site5937]”, for which the “gcPBM binding intensity (ln)” value was 8.63 ± 0.18. For “AACACAGATAAATTAACACACACACCCATATATATA [CACACA_site9310]”, the “gcPBM binding intensity (ln)” value is 8.9 ± 0.36. In the case of “CAATTTGGGGTGTACACACACCTTATTTAAATTAAA [CACACA_site6663]”, the “gcPBM binding intensity (ln)” value came to 8.43 ± 0.33. In the case of “TTGAACTCTCTTACGCGTACGTGTTATTATGAAAAT [XGTACX_site6265]”, the “gcPBM binding intensity (ln)” value came out at 8.85 ± 0.47. Next, “TAGCTTATTAATATCATACACACATAGATATATTTA [CACACA_site3105]”: 8.28 ± 0.5; “ATGAAATATCGGAACGCACACATAAATATATTTATA [CACACA_site2670]”: 8.66 ± 0.65; “TATATATATATATGTGCATGTAATGATTCAGCATCT [TGCATGCA_site803]”: 10.1 ± 0.3.

Consider “ATGTAAATATATATATGTACTAATTAGTAGTTTACG [XGTACX_site6271]”, for which the “gcPBM binding intensity (ln)” value came to 8.92 ± 0.44. Next, “AAAAGGAATATAATCATTCAAAAATATAATATATAT [GTGCAC_negctrl_site551]”: 8.34 ± 0.28; “TTACATAATTTCTGCTGTACCAATTTTGAGAAGTTG [XGTACX_site4023]”: 8.54 ± 0.45.
